Sequences with one replicate were seen in a single cluster, so their values are uncertain.
System: ATP
Experiment: switch fluorescence ratio, 500 uM ATP over buffer (Cy3 cluster intensity, sum of 5 cycles each) (fold (ratio)); higher = stronger signal-on switching upon ATP binding; sequences stand for … in TCGTCGGCAGCGTCAGATGTGTATAAGAGACAGTTTTTTTTTTTTTTTTTTTTTTTTT…TC
Details: aptamer strand: ATP DNA aptamer (quencher-CACCTGGGGGAGTATTGCGGAGGAAGG + anchor), 100 nM annealed; ATP concentration: 500 uM; one replicate
Summary of the method: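 After annealing to 100 nM quencher-labelled ATP aptamer, Cy3-labelled switching-strand clusters on a modified Illumina MiSeq flow-cell were imaged in selection buffer. A second image followed after 15 min with 500 uM ATP at 22 °C, and five such buffer/ATP cycles were done, each separated by NaOH stripping and re-annealing. The fluorescence ratio, averaged per switch-domain sequence, is summed target-cycle over summed buffer-cycle Cy3 intensity per cluster, with clusters outside 100-1000 RFU excluded.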
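Also: ATP exposure 15 min at 22 °C before imaging.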

Sequence	switch fluorescence ratio
ATCCATCGCT	1.11
CCCGGTTGCG	0.969
CTGAATATAC	2.88
TTTTGCTAGG	0.98
TACCCATTCG	1.01
TTGACTTTA	1.06
AAGTGAAGGA	1.02
TAACGATTGT	0.992
TTTTTAGCG	0.97
GCTAAAGCCA	1.01
AACAGTTCGG	0.974
GGTTGTCATC	0.978
AGTAGTTAAA	1.01
GCTACGCAGG	1.65
CCCGTTCGCG	1.03
GCCGTTTGCA	0.972
ACCGAAAAAG	1.08
TTTTCGGCG	1.24
AGCTCGGTGC	0.994
TGTAACTCAA	1.07
TATGTGGTAC	1.08
ATCAGTACTA	1.04
AGTTGCTTCC	1.91

Sequence	switch fluorescence ratio
AGGCGACCGT	1.01
AGGTTTCAT	0.994
GTGGGTATCT	1.01
AATTTCTCTA	1
AACAAGAGGA	0.985
AAGGCATAAA	0.939
ACTAAAGCGT	1.03
CTAGGGGCG	1.01
CAACTACGAT	1.06
GGTCCATG	1.01
GCTGATCTAC	1.02
CTTTATCATA	1.01
GGCGGTGTTG	1.01
GGTTCGACGA	0.924
AGCGAGCTGG	0.983
AACCATAAGA	0.984
GTAAGTGTCA	0.985
CCTATAATGA	1.01
CGTGATCGCA	0.983
TGGAATATTA	0.971
CAAATAGGC	0.963
TAAGGTAAAG	0.974
CCATTTTTCT	0.96

Sequence	switch fluorescence ratio
CGGAGCGACC	3.11
GCTGAAGGAG	1
CGAACCGAGT	1
AGCTCACCTC	1.1
GGACATCGGG	0.996
TGGACGTCAT	1.03
AACGAGATTC	0.999
GATCTAAAAA	0.985
GGTTCCACGT	1.04
ATGTGGACAG	1.05
AATGCCTGTT	1.02
AATAGAATCG	0.966
GGAGAACGTA	1.04
ATCCGATGTA	1.08
TTATCGGCTG	0.99
TCAGGAAAGA	0.994
GAAGCCAAG	1.04
CTGCCGAGGT	0.999
AAGCGCCACG	1.04
CGACATATCG	0.91
ATCCGGTA	0.971
AGTAGGCCGA	0.972
GATCTCAACC	0.965

Sequence	switch fluorescence ratio
TGGACTTTCG	0.933
TATTACCACC	1.27
AAAGCAATCT	1.87
GCGACAAGTT	1.08
GGCGGTCTAT	1
GTAACAAAAA	0.937
TACCGGTATT	1.06
ATTGAAGTGT	0.983
TCGAGGGCGC	1.04
AGCACGGTCA	1.02
TTCCCTAACA	0.958
TCGGTCTTGG	0.976
AGGTAATTTT	0.992
AGATATATTA	1.02
GTTAGAAAAC	1.05
CTCGAATGAC	1.14
CGGCAATAGG	3.61
TGTTGGCGGA	1.06
TAGTAAATTG	0.976
CAACATGGGC	1.04
GAAAAAAATG	1.01
GATTCAGAGA	0.981
GACCGCTAGA	1.08

Sequence	switch fluorescence ratio
AACAACCTGA	1.45
CAATATATGT	0.997
TCTTAGAAGG	1.02
TTGGAAAGAT	0.999
TTCTGGGAGC	0.977
CTAGTGGTGG	0.979
TTCTAGAGCT	1
ACGTCGTAT	0.964
ACATCTAGG	1.05
ATGGGACATA	1.08
TCACAAAGC	1.04
TTCGCGCCGC	1.02
TAGCCCGGGT	1.07
CATCAGGCCT	1.01
ATGTAGGTCA	1.03
ATACCTAAA	1.02
AGTAACTGAT	1.03
GTGTGTAAAT	0.952
TGTGGATTCT	0.981
GTTAGAGTCC	0.919
CCCAGCCCCG	1.01
TAGGCTTAAG	1.02
TTCAATCGCT	1.02

Sequence	switch fluorescence ratio
GGTAGAATC	1.02
TTGCGGTCTT	1.05
ACGGCCGCCT	1.01
GTGGCGGCG	1.01
CCTGGGGTCA	1.04
ACAGCCGGGG	1.11
AATACACTTG	1
ACCAATGTAG	0.986
AGTCAGCTGT	0.953
AAGACGTCTG	1.02
CACGTAGAAT	1.03
GTAGGACAGG	0.999
ACGTGTGGGT	0.972
TATTCTCGGG	1
TCCTCTCGTA	1.99
TCTTTTTAA	0.962
AAGCGTGAGC	0.925
GCGGTGTTAT	1.11
CCCTTAAAC	1
GATTTTTGCG	0.941
TTCTTCTAAG	1.05
TTATGCCTGG	0.991
GGGCGCATTG	1.02

Sequence	switch fluorescence ratio
CTAGTGTGAT	0.92
GGTACGAACA	1.33
CGTGCGGATA	1.05
TACTCGAGCG	1.02
CGGCGATAG	1.37
ACGGGTGCAC	0.999
CTTGGGCACG	1.05
CGATTTAAGT	1.01
TGAAAATAAA	1.01
GATTCTAGTG	1.04
AAATAGGTTC	1.09
CTTCTTCTGT	1
GGTCGGCAGT	0.968
TATCTAAGCG	1.02
GGTGCTTACT	1.04
ATCACTTTTA	0.998
GGCAGTAAGG	1
GAGGAGTAGA	1.01
CTCGATAGCC	1.03
